# The IC50 comes from the fitted curve, where viability falls to half of the control; fits outside the tested doses are given as limits. For AUC the same curve is integrated over the 256-fold range of doses and scaled to a fraction; it is 1 without any effect and falls as sensitivity rises. For some assays here: A top dose marked as inferred was calculated from the reported fits. For some assays here: Where an entry number is given, a second screen of the drug exists; the two often differ.
# Experiments:
# Assay in all cases: Viability of human cancer cell lines after 72 h of drug (GDSC screen)
# KIN001-270 = compound: Cc1ccc(Nc2cc(-c3cccc(N4C(=O)c5ccccc5C4=O)c3)ncn2)cc1NS(C)(=O)=O [KIN001-270]; settings: top dose 20 µM; top dose inferred
# Method: (§1)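 Human cancer cell lines in 384-well plates, medium with 10% serum, drug for 72 h over a 256-fold dose range (nine 2-fold or five 4-fold steps up to the top dose). Adherent lines were fixed and stained with the nucleic acid dye Syto60, suspension lines read with resazurin; signal relative to control wells, capped at 0 and 100%. One two-parameter sigmoid per drug and line, fitted in a mixed model over all curves with the slope shared within a line.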
# MP470 = compound: S=C(NCc1ccc2c(c1)OCO2)N1CCN(c2ncnc3c2oc2ccccc23)CC1 [MP470]; settings: top dose 20 µM; top dose inferred
# Method: as §1
# T0901317 = compound: O=S(=O)(c1ccccc1)N(CC(F)(F)F)c1ccc(C(O)(C(F)(F)F)C(F)(F)F)cc1 [T0901317]; settings: top dose 10.24 µM; top dose inferred
# Method: as §1
# TW-37 = compound: CC(C)c1ccccc1Cc1cc(C(=O)Nc2ccc(S(=O)(=O)c3ccccc3C(C)(C)C)cc2)c(O)c(O)c1O [TW-37]; settings: top dose 5 µM
# Method: as §1
# LFM-A13 = compound: C/C(O)=C(\C#N)C(=O)Nc1cc(Br)ccc1Br [LFM-A13]; settings: top dose 16 µM; top dose inferred
# Method: as §1
# AUY922 = compound: CCNC(=O)c1noc(-c2cc(C(C)C)c(O)cc2O)c1-c1ccc(CN2CCOCC2)cc1 [AUY922]; settings: top dose 0.256 µM; top dose inferred
# Method: as §1
# Bicalutamide = compound: CC(O)(CS(=O)(=O)c1ccc(F)cc1)C(=O)Nc1ccc(C#N)c(C(F)(F)F)c1 [Bicalutamide]; settings: top dose inferred
# Method: as §1
# Gemcitabine = compound: Nc1ccn([C@@H]2O[C@H](CO)[C@@H](O)C2(F)F)c(=O)n1 [Gemcitabine]; settings: top dose 1.024 µM
# Method: as §1
# GNF-2 = compound: NC(=O)c1cccc(-c2cc(Nc3ccc(OC(F)(F)F)cc3)ncn2)c1 [GNF-2]; settings: top dose 1.28 µM; top dose inferred
# Method: as §1
# [1] = top dose 1.024 µM, screen: GDSC drug entry 150
# [2] = top dose 10 µM, screen: GDSC drug entry 1502
Cell Line,AUC (KIN001-270),IC50 (KIN001-270),AUC (MP470),IC50 (MP470),AUC (T0901317),IC50 (T0901317),AUC (TW-37),IC50 (TW-37),AUC (LFM-A13),IC50 (LFM-A13),AUC (AUY922),IC50 (AUY922),AUC (Bicalutamide; [1]),IC50 (Bicalutamide; [1]),AUC (Bicalutamide; [2]),IC50 (Bicalutamide; [2]),AUC (Gemcitabine),IC50 (Gemcitabine),AUC (GNF-2),IC50 (GNF-2)
"COLO-800 (melanoma, adherent)",0.983,> 20000 nM,0.743,6040 nM,0.963,> 10200 nM,0.495,302 nM,0.891,> 16000 nM,0.633,36.8 nM,0.987,> 1020 nM,0.979,> 10000 nM,0.37,28.3 nM,0.978,> 1280 nM
"COLO-829 (melanoma, adherent)",0.975,> 20000 nM,0.935,> 20000 nM,0.979,> 10200 nM,0.626,822 nM,0.957,> 16000 nM,0.871,> 256 nM,0.972,> 1020 nM,–,–,0.971,> 1020 nM,0.957,> 1280 nM
"Calu-6 (lung adenocarcinoma, adherent)",0.97,> 20000 nM,0.912,> 20000 nM,0.977,> 10200 nM,0.658,918 nM,0.977,> 16000 nM,0.729,–,0.984,> 1020 nM,0.928,> 10000 nM,0.21,7.68 nM,0.982,> 1280 nM
"DEL (lymphoid neoplasm, suspension)",0.974,> 20000 nM,0.545,1610 nM,0.966,> 10200 nM,0.726,1160 nM,0.982,> 16000 nM,0.599,28.1 nM,0.994,> 1020 nM,0.991,> 10000 nM,0.09,4.54 nM,0.99,> 1280 nM
"EKVX (lung adenocarcinoma, adherent)",0.968,> 20000 nM,0.92,> 20000 nM,0.97,> 10200 nM,0.766,4770 nM,0.751,12700 nM,0.772,> 256 nM,0.959,> 1020 nM,0.888,> 10000 nM,0.933,> 1020 nM,0.962,> 1280 nM
"H-EMC-SS (chondrosarcoma, adherent)",0.947,> 20000 nM,0.92,> 20000 nM,0.98,> 10200 nM,0.551,450 nM,0.971,> 16000 nM,0.745,101 nM,0.979,> 1020 nM,0.979,> 10000 nM,0.647,185 nM,0.981,> 1280 nM
"HA7-RCC (kidney, adherent)",0.935,> 20000 nM,0.906,> 20000 nM,0.984,> 10200 nM,0.444,216 nM,0.937,> 16000 nM,0.695,60 nM,0.98,> 1020 nM,0.975,> 10000 nM,0.16,5.03 nM,0.966,> 1280 nM
"HCC1599 (breast, suspension)",0.968,> 20000 nM,0.905,> 20000 nM,0.951,> 10200 nM,–,–,0.98,> 16000 nM,0.695,61.7 nM,0.977,> 1020 nM,–,–,0.449,45.4 nM,0.981,> 1280 nM
"HCC-33 (small cell lung carcinoma, adherent)",0.977,> 20000 nM,0.93,> 20000 nM,0.985,> 10200 nM,–,–,0.983,> 16000 nM,0.864,229 nM,0.987,> 1020 nM,–,–,0.845,751 nM,0.985,> 1280 nM
"HCE-4 (oesophagus, adherent)",0.992,> 20000 nM,0.975,> 20000 nM,0.99,> 10200 nM,0.584,511 nM,0.988,> 16000 nM,0.517,17.7 nM,0.992,> 1020 nM,–,–,0.096,4.01 nM,0.991,> 1280 nM
"HD-MY-Z (Hodgkin lymphoma, adherent)",0.914,> 20000 nM,0.903,> 20000 nM,0.962,> 10200 nM,0.53,377 nM,0.983,> 16000 nM,0.698,57.7 nM,0.986,> 1020 nM,0.947,> 10000 nM,0.358,25.8 nM,0.985,> 1280 nM
"HOP-62 (lung adenocarcinoma, adherent)",0.937,> 20000 nM,0.78,8190 nM,0.981,> 10200 nM,0.474,266 nM,0.955,> 16000 nM,0.44,11 nM,0.986,> 1020 nM,0.985,> 10000 nM,0.677,199 nM,0.985,> 1280 nM
"HT-144 (melanoma, adherent)",0.968,> 20000 nM,0.905,> 20000 nM,0.981,> 10200 nM,0.43,196 nM,0.975,> 16000 nM,0.275,3.39 nM,0.982,> 1020 nM,0.965,> 10000 nM,0.175,5.74 nM,0.943,> 1280 nM
"Hs-445 (Hodgkin lymphoma, suspension)",0.966,> 20000 nM,0.879,17800 nM,0.988,> 10200 nM,–,–,0.988,> 16000 nM,0.497,15.7 nM,0.988,> 1020 nM,0.988,> 10000 nM,0.041,< 4 nM,0.989,> 1280 nM
"IA-LM (large cell lung carcinoma, adherent)",0.981,> 20000 nM,0.942,> 20000 nM,0.963,> 10200 nM,0.713,1360 nM,0.977,> 16000 nM,0.428,9.9 nM,0.977,> 1020 nM,0.96,> 10000 nM,0.21,7.88 nM,0.984,> 1280 nM
"IST-MEL1 (melanoma, adherent)",0.943,> 20000 nM,0.97,> 20000 nM,0.975,> 10200 nM,0.502,317 nM,0.936,> 16000 nM,0.386,7.29 nM,0.979,> 1020 nM,0.969,> 10000 nM,0.079,< 4 nM,0.943,> 1280 nM
"IST-MES1 (mesothelioma, adherent)",0.972,> 20000 nM,0.824,12100 nM,0.986,> 10200 nM,0.48,275 nM,0.933,> 16000 nM,0.888,> 256 nM,0.987,> 1020 nM,–,–,0.788,452 nM,0.987,> 1280 nM
"JAR (urogenital system, adherent)",0.971,> 20000 nM,0.917,> 20000 nM,0.938,> 10200 nM,0.293,82.4 nM,0.988,> 16000 nM,0.958,> 256 nM,0.988,> 1020 nM,0.973,> 10000 nM,0.984,> 1020 nM,0.987,> 1280 nM
"KALS-1 (glioma, adherent)",0.97,> 20000 nM,0.963,> 20000 nM,0.978,> 10200 nM,0.49,290 nM,0.922,> 16000 nM,0.5,16.1 nM,0.957,> 1020 nM,0.975,> 10000 nM,0.405,32 nM,0.969,> 1280 nM
"KCL-22 (chronic myeloid leukaemia, suspension)",0.982,> 20000 nM,0.89,16600 nM,0.9,9390 nM,–,–,0.989,> 16000 nM,0.504,16.4 nM,0.991,> 1020 nM,0.99,> 10000 nM,0.309,20.7 nM,0.701,264 nM
"NCI-H748 (small cell lung carcinoma, suspension)",0.915,> 20000 nM,0.87,> 20000 nM,0.978,> 10200 nM,–,–,0.942,> 16000 nM,0.882,> 256 nM,0.976,> 1020 nM,–,–,0.659,201 nM,0.98,> 1280 nM
"NCI-H2171 (small cell lung carcinoma, suspension)",0.979,> 20000 nM,0.934,> 20000 nM,0.985,> 10200 nM,–,–,0.991,> 16000 nM,0.792,99.3 nM,0.992,> 1020 nM,–,–,0.872,757 nM,0.991,> 1280 nM
"NCI-H2196 (small cell lung carcinoma, adherent)",0.953,> 20000 nM,0.631,2940 nM,0.987,> 10200 nM,–,–,0.98,> 16000 nM,0.679,52.1 nM,0.987,> 1020 nM,–,–,0.819,624 nM,0.981,> 1280 nM
"SCC-3 (B-cell lymphoma, suspension)",0.995,> 20000 nM,0.985,> 20000 nM,0.984,> 10200 nM,–,–,0.997,> 16000 nM,0.965,> 256 nM,0.996,> 1020 nM,–,–,0.362,29.6 nM,0.997,> 1280 nM
"SIG-M5 (acute myeloid leukaemia, suspension)",0.9,14200 nM,0.901,14400 nM,0.831,4390 nM,–,–,0.959,> 16000 nM,0.318,5.74 nM,0.994,> 1020 nM,–,–,0.01,< 4 nM,0.994,> 1280 nM
"SU-DHL-1 (anaplastic large cell lymphoma, suspension)",0.997,> 20000 nM,0.976,> 20000 nM,0.988,> 10200 nM,–,–,0.997,> 16000 nM,0.764,70 nM,0.996,> 1020 nM,–,–,0.269,17.6 nM,0.997,> 1280 nM
"TALL-1 (T-cell lymphoblastic leukaemia, suspension)",0.985,> 20000 nM,0.806,9620 nM,0.974,> 10200 nM,–,–,0.99,> 16000 nM,0.859,197 nM,0.99,> 1020 nM,–,–,0.953,> 1020 nM,0.99,> 1280 nM
"TE-441-T (rhabdomyosarcoma, adherent)",0.962,> 20000 nM,0.966,> 20000 nM,0.989,> 10200 nM,–,–,0.987,> 16000 nM,0.578,26 nM,0.985,> 1020 nM,–,–,0.844,689 nM,0.987,> 1280 nM

# From the supplement of paper PMC4967469
